# Some of the results follow.
# What was measured:
# Assay in all cases: glycan array binding signal (z-score within array); higher = stronger binding
# Conditions in all cases: glycan notation: IUPAC condensed, linker removed
# Fuc(a1-2)Gal = biological target: Fuc(a1-2)Gal
# Outline: (§1)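 The Consortium for Functional Glycomics database supplied 3228 glycan arrays, of which those lacking an available protein sequence were dropped. The binding signal, a within-array Z-score, was averaged across arrays of the same protein sequence and across linkers. Negative scores can be read as non-binding.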
# Fuc(a1-2)Gal(b1-3)GalNAc = biological target: Fuc(a1-2)Gal(b1-3)GalNAc
# Outline: as §1
# [1] = biological target: Fuc(a1-2)Gal(b1-3)GalNAc(a1-3)[Fuc(a1-2)]Gal(b1-4)Glc
# Outline: as §1
# [2] = biological target: Fuc(a1-2)Gal(b1-3)GalNAc(a1-3)[Fuc(a1-2)]Gal(b1-4)GlcNAc
# Outline: as §1
# [3] = biological target: Fuc(a1-2)Gal(b1-3)GalNAc(b1-3)Gal
# Outline: as §1
# [4] = biological target: Fuc(a1-2)Gal(b1-3)GalNAc(b1-3)Gal(a1-4)Gal(b1-4)Glc
# Outline: as §1
# [5] = biological target: Fuc(a1-2)Gal(b1-3)GalNAc(b1-4)[Neu5Ac(a2-3)]Gal(b1-4)Glc
# Outline: as §1
# Fuc(a1-2)Gal(b1-3)GlcNAc = biological target: Fuc(a1-2)Gal(b1-3)GlcNAc
# Outline: as §1
# [6] = biological target: Fuc(a1-2)Gal(b1-3)GlcNAc(b1-2)Man(a1-3)[Fuc(a1-2)Gal(b1-3)GlcNAc(b1-2)Man(a1-6)]Man(b1-4)GlcNAc(b1-4)GlcNAc
# Outline: as §1
# [7] = biological target: Fuc(a1-2)Gal(b1-3)GlcNAc(b1-2)Man(a1-3)[Fuc(a1-2)Gal(b1-3)GlcNAc(b1-2)Man(a1-6)]Man(b1-4)GlcNAc(b1-4)[Fuc(a1-6)]GlcNAc
# Outline: as §1
# [8] = biological target: Fuc(a1-2)Gal(b1-3)GlcNAc(b1-3)Gal(b1-4)Glc
# Outline: as §1
# [9] = biological target: Fuc(a1-2)Gal(b1-3)GlcNAc(b1-3)GalNAc
# Outline: as §1
# [10] = biological target: Fuc(a1-2)Gal(b1-3)GlcNAc(b1-3)[Fuc(a1-2)Gal(b1-3)GlcNAc(b1-6)]GalNAc
# Outline: as §1
# [11] = biological target: Fuc(a1-2)Gal(b1-3)GlcNAc(b1-3)[Fuc(a1-3)[Gal(b1-4)]GlcNAc(b1-6)]Gal(b1-4)Glc
# Outline: as §1
# [12] = biological target: Fuc(a1-2)Gal(b1-3)GlcNAc(b1-3)[Gal(b1-4)GlcNAc(b1-6)]Gal(b1-4)Glc
# Outline: as §1
# [13] = biological target: Fuc(a1-2)Gal(b1-3)GlcNAc(b1-3)[Neu5Ac(a2-6)Gal(b1-4)GlcNAc(b1-6)]Gal(b1-4)Glc
# Outline: as §1
# [14] = biological target: Fuc(a1-2)Gal(b1-3)GlcNAc6S
# Outline: as §1
# [15] = biological target: Fuc(a1-2)Gal(b1-3)[Fuc(a1-4)]GlcNAc
# Outline: as §1
# [16] = biological target: Fuc(a1-2)Gal(b1-3)[Fuc(a1-4)]GlcNAc(b1-2)Man(a1-3)[Fuc(a1-2)Gal(b1-3)[Fuc(a1-4)]GlcNAc(b1-2)Man(a1-6)]Man(b1-4)GlcNAc(b1-4)GlcNAc
# Outline: as §1
# [17] = biological target: Fuc(a1-2)Gal(b1-3)[Fuc(a1-4)]GlcNAc(b1-2)Man(a1-6)[Fuc(a1-2)Gal(b1-3)[Fuc(a1-4)]GlcNAc(b1-2)Man(a1-3)]Man(b1-4)GlcNAc(b1-4)[Fuc(a1-6)]GlcNAc
# Outline: as §1
# [18] = biological target: Fuc(a1-2)Gal(b1-3)[Fuc(a1-4)]GlcNAc(b1-3)[Fuc(a1-3)[Gal(b1-4)]GlcNAc(b1-6)]Gal(b1-4)Glc
# Outline: as §1
# [19] = biological target: Fuc(a1-2)Gal(b1-3)[Fuc(a1-4)]GlcNAc(b1-3)[Gal(b1-4)GlcNAc(b1-6)]Gal(b1-4)Glc
# Outline: as §1
# Fuc(a1-2)Gal(b1-4)Glc = biological target: Fuc(a1-2)Gal(b1-4)Glc
# Outline: as §1
# Fuc(a1-2)Gal(b1-4)Glc6S = biological target: Fuc(a1-2)Gal(b1-4)Glc6S
# Outline: as §1
# Fuc(a1-2)Gal(b1-4)GlcNAc = biological target: Fuc(a1-2)Gal(b1-4)GlcNAc
# Outline: as §1
# [20] = biological target: Fuc(a1-2)Gal(b1-4)GlcNAc(b1-2)Man
# Outline: as §1
# [21] = biological target: Fuc(a1-2)Gal(b1-4)GlcNAc(b1-2)Man(a1-3)[Fuc(a1-2)Gal(b1-4)GlcNAc(b1-2)Man(a1-6)]Man(b1-4)GlcNAc(b1-4)GlcNAc
# Outline: as §1
# [22] = biological target: Fuc(a1-2)Gal(b1-4)GlcNAc(b1-2)Man(a1-3)[Fuc(a1-2)Gal(b1-4)GlcNAc(b1-2)Man(a1-6)]Man(b1-4)GlcNAc(b1-4)[Fuc(a1-6)]GlcNAc
# Outline: as §1
# [23] = biological target: Fuc(a1-2)Gal(b1-4)GlcNAc(b1-2)[Fuc(a1-2)Gal(b1-4)GlcNAc(b1-4)]Man(a1-3)[Fuc(a1-2)Gal(b1-4)GlcNAc(b1-2)Man(a1-6)]Man(b1-4)GlcNAc(b1-4)GlcNAc
# Outline: as §1
# [24] = biological target: Fuc(a1-2)Gal(b1-4)GlcNAc(b1-3)Gal(b1-4)GlcNAc
# Outline: as §1
binder,measurement,setting,value
"PRKCE (Homo sapiens), Q02156 (protein) MVVFNGLLKIKICEAVSLKPTAWSLRHAVGPRPQTFLLDPYIALNVDDSRIGQTATKQKTNSPAWHDEFVTDVCNGRKIELAVFHDAPIGYDDFVANCTIQFEELLQNGSRHFEDWIDLEPEGRVYVIIDLSGSSGEAPKDNEERVFRERMRPRKRQGAVRRRVHQVNGHKFMATYLRQPTYCSHCRDFIWGVIGKQGYQCQVCTCVVHKRCHELIITKCAGLKKQETPDQVGSQRFSVNMPHKFGIHNYKVPTFCDHCGSLLWGLLRQGLQCKVCKMNVHRRCETNVAPNCGVDARGIAKVLADLGVTPDKITNSGQRRKKLIAGAESPQPASGSSPSEEDRSKSAPTSPCDQEIKELENNIRKALSFDNRGEEHRAASSPDGQLMSPGENGEVRQGQAKRLGLDEFNFIKVLGKGSFGKVMLAELKGKDEVYAVKVLKKDVILQDDDVDCTMTEKRILALARKHPYLTQLYCCFQTKDRLFFVMEYVNGGDLMFQIQRSRKFDEPRSRFYAAEVTSALMFLHQHGVIYRDLKLDNILLDAEGHCKLADFGMCKEGILNGVTTTTFCGTPDYIAPEILQELEYGPSVDWWALGVLMYEMMAGQPPFEADNEDDLFESILHDDVLYPVWLSKEAVSILKAFMTKNPHKRLGCVASQNGEDAIKQHPFFKEIDWVLLEQKKIKPPFKPRIKTKRDVNNFDQDFTREEPVLTLVDEAIVKQINQEEFKGFSYFGEDLMP",glycan array binding signal (z-score),Fuc(a1-2)Gal,-0.205
same,glycan array binding signal (z-score),Fuc(a1-2)Gal(b1-3)GalNAc,-0.353
same,glycan array binding signal (z-score),[1],-0.374
same,glycan array binding signal (z-score),[2],-0.34
same,glycan array binding signal (z-score),[3],-0.099
same,glycan array binding signal (z-score),[4],0.222
same,glycan array binding signal (z-score),[5],-0.414
same,glycan array binding signal (z-score),Fuc(a1-2)Gal(b1-3)GlcNAc,-0.414
same,glycan array binding signal (z-score),[6],-0.28
same,glycan array binding signal (z-score),[7],-0.306
same,glycan array binding signal (z-score),[8],-0.391
same,glycan array binding signal (z-score),[9],0.453
same,glycan array binding signal (z-score),[10],-0.128
same,glycan array binding signal (z-score),[11],0.285
same,glycan array binding signal (z-score),[12],-0.354
same,glycan array binding signal (z-score),[13],-0.252
same,glycan array binding signal (z-score),[14],-0.014
same,glycan array binding signal (z-score),[15],-0.08
same,glycan array binding signal (z-score),[16],3.82
same,glycan array binding signal (z-score),[17],-0.004
same,glycan array binding signal (z-score),[18],-0.205
same,glycan array binding signal (z-score),[19],-0.388
same,glycan array binding signal (z-score),Fuc(a1-2)Gal(b1-4)Glc,-0.235
same,glycan array binding signal (z-score),Fuc(a1-2)Gal(b1-4)Glc6S,0.01
same,glycan array binding signal (z-score),Fuc(a1-2)Gal(b1-4)GlcNAc,-0.402
same,glycan array binding signal (z-score),[20],1.36
same,glycan array binding signal (z-score),[21],-0.127
same,glycan array binding signal (z-score),[22],2.04
same,glycan array binding signal (z-score),[23],0.577
same,glycan array binding signal (z-score),[24],-0.317

# — the supplement of paper PMC8728848
